Experimental data reported in the supplement of paper PMC10338343.
± gives the standard deviation. Only a part is listed here, and it is no random draw.

System: MIWI (PIWIL1) piRISC loaded with L1MC piRNA (30 nt)
Assay: pre-steady-state target cleavage rate (min^-1); MIWI and MILI are mouse PIWI proteins and EfPiwi is from a freshwater sponge; tags in brackets are library labels; higher = faster piRNA-guided slicing of the target
Conditions: guide: L1MC piRNA 5'p-UAACUAAAUACUAUGCAAGCUGUAGGUCCU
How it was run: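 Active affinity-purified piRISC carrying one synthetic guide (1 nM) was mixed with a transcribed, DNA-blocked target RNA library […] in HEPES–potassium acetate buffer at 33 °C for 0–8 or 0–960 min, with or without 500 nM GTSF1 partner protein. Uncleaved targets were then sequenced and normalised to depth and to weakly complementary targets. Three trials were pooled, and k3 was capped at 0.0001 min^-1. A burst-and-steady-state fit was applied to obtain the pre-steady-state cleavage rate.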

[1] = auxiliary factor: 500 nM mouse GTSF1
[2] = auxiliary factor: none (no GTSF1)
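Note: 1 nM active piRISC with 0.1 nM target library at 33 °C single turnover.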

## UCGACCUACAGCUUGCUUAGUAUUUAGAAA
[1]
  pre-steady-state target cleavage rate: 0.422 ± 0.041
[2]
  pre-steady-state target cleavage rate: 0.00332 ± 0.0022

## UCCUGGUACAGCUUGCAUAGUGAUUUAGUUA
[1]
  pre-steady-state target cleavage rate: 0.0476 ± 0.011
[2]
  pre-steady-state target cleavage rate: 0.00639 ± 0.0029

## UCGACCAUCAGCUUGCAUAGUAUUUACAAA
[1]
  pre-steady-state target cleavage rate: 0.323 ± 0.03
[2]
  pre-steady-state target cleavage rate: 0.00722 ± 0.0017

## UCGACCUACAGCCUGCAUAGUAUUUAGUUA
[1]
  pre-steady-state target cleavage rate: 1.41 ± 0.038
[2]
  pre-steady-state target cleavage rate: 0.0857 ± 0.015

## AGGACCUACAGCUUGCAUAGUAAUUUAGUUA
[1]
  pre-steady-state target cleavage rate: 0.209 ± 0.024
[2]
  pre-steady-state target cleavage rate: 0.0183 ± 0.0052

## UCGACCUACAGCUUGGAUAGUUUUUAGUUA
[1]
  pre-steady-state target cleavage rate: 0.384 ± 0.021
[2]
  pre-steady-state target cleavage rate: 0.0246 ± 0.0064

## UGGACCUACAGCUUGCUUAGUAUUUUGUUA
[1]
  pre-steady-state target cleavage rate: 1.03 ± 0.072
[2]
  pre-steady-state target cleavage rate: 0.0186 ± 0.0042

## UCCUGGAACAGCUUGCAAAGUAUUAAGUUA
[1]
  pre-steady-state target cleavage rate: 0.439 ± 0.041
[2]
  pre-steady-state target cleavage rate: 0.0119 ± 0.0043

## UCCUGGUACAGCUUGCAAAGUUUUUAGUUA
[1]
  pre-steady-state target cleavage rate: 0.284 ± 0.029
[2]
  pre-steady-state target cleavage rate: 0.0265 ± 0.0081

## UCGACCUACAGCUUGCAUACUAUUUAGUUA
[1]
  pre-steady-state target cleavage rate: 0.41 ± 0.024
[2]
  pre-steady-state target cleavage rate: 0.0312 ± 0.0058

## UCCUGCUACAGGAUGCAUAGUAUUUAGUUA
[1]
  pre-steady-state target cleavage rate: 1.02 ± 0.067
[2]
  pre-steady-state target cleavage rate: 0.00727 ± 0.0014

## AGGACCUACUGCUUGCAUAGUAUAUAGUUA
[1]
  pre-steady-state target cleavage rate: 0.687 ± 0.051
[2]
  pre-steady-state target cleavage rate: 0.0381 ± 0.0072

## UCCUGGAUCAGCUUGGAUAGUUUUUAGUUA
[1]
  pre-steady-state target cleavage rate: 0.23 ± 0.022
[2]
  pre-steady-state target cleavage rate: 0.0253 ± 0.0077

## UCCUGGUACAGCUUGCAUAGUAUUUCGUUA
[1]
  pre-steady-state target cleavage rate: 0.217 ± 0.05
[2]
  pre-steady-state target cleavage rate: 0.0134 ± 0.0045

## UCCUGGUACGCUUGCAUAGUAUUUAGUUA
[1]
  pre-steady-state target cleavage rate: 0.44 ± 0.056
[2]
  pre-steady-state target cleavage rate: 0.0327 ± 0.0065

## UCCACCUACAGCUUGCAUAGUUUUUUGUUA
[1]
  pre-steady-state target cleavage rate: 0.225 ± 0.026
[2]
  pre-steady-state target cleavage rate: 0.0197 ± 0.004

## UGGACCGACAGCUUGCAUAGUAUUUAGUUA
[1]
  pre-steady-state target cleavage rate: 1.45 ± 0.076
[2]
  pre-steady-state target cleavage rate: 0.0713 ± 0.013

## UCCUGGAUCACCUUGGAUAGUAUUUAGUUA
[1]
  pre-steady-state target cleavage rate: 0.317 ± 0.036
[2]
  pre-steady-state target cleavage rate: 0.00731 ± 0.0027

## AGGACGUACAGCUUGCAUAGUAUAUAGUUA
[1]
  pre-steady-state target cleavage rate: 0.713 ± 0.084
[2]
  pre-steady-state target cleavage rate: 0.0387 ± 0.01

## UCCUGGAUGAGCUUGAAUAGUAUUUAGUUA
[1]
  pre-steady-state target cleavage rate: 0.944 ± 0.045
[2]
  pre-steady-state target cleavage rate: 0.0233 ± 0.007

## UCCUCCUUGAGCUUGCAUAGUAUUUAGUAA
[1]
  pre-steady-state target cleavage rate: 0.621 ± 0.079
[2]
  pre-steady-state target cleavage rate: 0.0166 ± 0.0044

## AGGUCCUACAGCUUGCAUAGUUUUUAGUUA
[1]
  pre-steady-state target cleavage rate: 0.412 ± 0.022
[2]
  pre-steady-state target cleavage rate: 0.0402 ± 0.0081

## UGGACCAUACAGCUUGCAUAGUAUUUAGUUA
[1]
  pre-steady-state target cleavage rate: 1.3 ± 0.066
[2]
  pre-steady-state target cleavage rate: 0.0868 ± 0.013

## UCCUGCUACAGCUUGCAUAGUAUUUAGGUA
[1]
  pre-steady-state target cleavage rate: 0.26 ± 0.041
[2]
  pre-steady-state target cleavage rate: 0.0162 ± 0.0038

## UCCUGGAACAGCUUGCAUAGUAUAUUAGUUA
[1]
  pre-steady-state target cleavage rate: 0.819 ± 0.053
[2]
  pre-steady-state target cleavage rate: 0.0111 ± 0.0036

## UCGACCUAGAGGUUGCAUAGUAUUUAGUUA
[1]
  pre-steady-state target cleavage rate: 0.822 ± 0.11
[2]
  pre-steady-state target cleavage rate: 0.0216 ± 0.0032

## UCCUGGAACAGCUUGCAUACUAUUUUGUUA
[1]
  pre-steady-state target cleavage rate: 0.134 ± 0.015
[2]
  pre-steady-state target cleavage rate: 0.0133 ± 0.0031

## UCCUGGAUGUGCUGUGCAUAGUAUUUAGUUA
[1]
  pre-steady-state target cleavage rate: 0.189 ± 0.022
[2]
  pre-steady-state target cleavage rate: 0.0101 ± 0.0031

## UCCUCCUACAGCUGCAUAGUAUUUAGUUA
[1]
  pre-steady-state target cleavage rate: 1.03 ± 0.041
[2]
  pre-steady-state target cleavage rate: 0.00391 ± 0.0025

## UCCUGGAUGAGCUAGCAUAGUAUUUUGUUA
[1]
  pre-steady-state target cleavage rate: 0.373 ± 0.047
[2]
  pre-steady-state target cleavage rate: 0.00615 ± 0.0029

## UCCUCCUACAGCUUGCAUAGUCAUUUAGUUA
[1]
  pre-steady-state target cleavage rate: 0.086 ± 0.027
[2]
  pre-steady-state target cleavage rate: 0.00373 ± 0.0024

## UCCUGGAUGAGCUUGCAUAGAAUUUACUUA
[1]
  pre-steady-state target cleavage rate: 0.102 ± 0.027
[2]
  pre-steady-state target cleavage rate: 0.00595 ± 0.0027

## UCCACCUACCGCUUGCAUAGUAUUUAGUUA
[1]
  pre-steady-state target cleavage rate: 1.11 ± 0.05
[2]
  pre-steady-state target cleavage rate: 0.0544 ± 0.0086

## UCCUGCUACUGCUUGCAUAGUAUUUAGAAA
[1]
  pre-steady-state target cleavage rate: 0.134 ± 0.023
[2]
  pre-steady-state target cleavage rate: 0.00379 ± 0.0024

## UCCGCCUACAGCUUGCAUAGUAUUUAGUUA
[1]
  pre-steady-state target cleavage rate: 1.23 ± 0.05
[2]
  pre-steady-state target cleavage rate: 0.0714 ± 0.011

## UCCUGUUACAGCUUGCAUAGUAUUUAGUUA
[1]
  pre-steady-state target cleavage rate: 1.28 ± 0.058
[2]
  pre-steady-state target cleavage rate: 0.0747 ± 0.013

## UCCUCGUACAGCUUGCAUAGUAUUUAGAUA
[1]
  pre-steady-state target cleavage rate: 0.413 ± 0.034
[2]
  pre-steady-state target cleavage rate: 0.0216 ± 0.004

## UCCUGGAUCAGCAUGCAUAGUAUUUAGAAA
[1]
  pre-steady-state target cleavage rate: 0.129 ± 0.02
[2]
  pre-steady-state target cleavage rate: 0.00297 ± 0.0019

## UCCACCUUCAGCUUGCAUAGUAUUUACUUA
[1]
  pre-steady-state target cleavage rate: 0.345 ± 0.044
[2]
  pre-steady-state target cleavage rate: 0.0207 ± 0.0033

## UCCUCCUACAGUCUUGCAUAGUAUUUAGUUA
[1]
  pre-steady-state target cleavage rate: 0.834 ± 0.045
[2]
  pre-steady-state target cleavage rate: 0.0343 ± 0.0054

## UCGACCUACAGCUUGCAUAGUAUUUAGGUA
[1]
  pre-steady-state target cleavage rate: 0.404 ± 0.064
[2]
  pre-steady-state target cleavage rate: 0.0199 ± 0.0067

## UCCUGGAACAGCUUGCAUAGUUUAUAGUUA
[1]
  pre-steady-state target cleavage rate: 0.0662 ± 0.011
[2]
  pre-steady-state target cleavage rate: 0.0101 ± 0.003

## UGGACCUACAGCUUGCAUAGUAUUUAGUCUA
[1]
  pre-steady-state target cleavage rate: 0.0666 ± 0.01
[2]
  pre-steady-state target cleavage rate: 0.0139 ± 0.0033

## UCGACCUACAGCUUGCAUAGUAAUUUGUUA
[1]
  pre-steady-state target cleavage rate: 0.528 ± 0.035
[2]
  pre-steady-state target cleavage rate: 0.0166 ± 0.0049

## UGGACCUACAGCUUGCAUAGUAUUUAGGUUA
[1]
  pre-steady-state target cleavage rate: 0.765 ± 0.064
[2]
  pre-steady-state target cleavage rate: 0.0376 ± 0.0065

## UCCUGGAACUGCUUGCAUAGUAUUUACAAA
[1]
  pre-steady-state target cleavage rate: 0.137 ± 0.022
[2]
  pre-steady-state target cleavage rate: 0.00377 ± 0.0034

## UCCUCCUACAGGUUGCAUAGUAAUUAGUUA
[1]
  pre-steady-state target cleavage rate: 0.603 ± 0.036
[2]
  pre-steady-state target cleavage rate: 0.0104 ± 0.0024

## UCCUGGAUGUGCUUGCAUAGUAUUUAGUUU [g2:g20:cont:t1U]
[1]
  pre-steady-state target cleavage rate: 0.481 ± 0.037
[2]
  pre-steady-state target cleavage rate: 0.0457 ± 0.01

## UCCACCAACAGCUUGCAUAGUAUUAAGUUA
[1]
  pre-steady-state target cleavage rate: 0.42 ± 0.036
[2]
  pre-steady-state target cleavage rate: 0.0209 ± 0.0043

## UCCUGCUAGUCCUUGCAUAGUAUUUAGUAA
[1]
  pre-steady-state target cleavage rate: 0.08 ± 0.016
[2]
  pre-steady-state target cleavage rate: 0.00502 ± 0.0015

## UCCACCAUGAGCUUGCAUAGUAUUUAGAAA
[1]
  pre-steady-state target cleavage rate: 0.298 ± 0.035
[2]
  pre-steady-state target cleavage rate: 0.00532 ± 0.0017

## UCCUCCUACAGCUUGCAUAGUAUAUAGUUA
[1]
  pre-steady-state target cleavage rate: 0.602 ± 0.035
[2]
  pre-steady-state target cleavage rate: 0.0203 ± 0.0041

## UCCUGCUACAGCUUGCAUAGUAUUCUAGUUA
[1]
  pre-steady-state target cleavage rate: 0.521 ± 0.056
[2]
  pre-steady-state target cleavage rate: 0.0141 ± 0.0037

## AGGACGUACAGCUUGCUUAGUAUUUAGUUA
[1]
  pre-steady-state target cleavage rate: 1.31 ± 0.055
[2]
  pre-steady-state target cleavage rate: 0.0487 ± 0.0095

## UCCACCUACACCUUGCAUAGUAUUAAGUUA
[1]
  pre-steady-state target cleavage rate: 0.544 ± 0.06
[2]
  pre-steady-state target cleavage rate: 0.0179 ± 0.0039

## AGGACCUACAGCUUGCUAUGUAUUUAGUUA
[1]
  pre-steady-state target cleavage rate: 0.189 ± 0.022
[2]
  pre-steady-state target cleavage rate: 0.00595 ± 0.0018

## UGGACCUACAGCUUGCAUAGAAUUUAGUAA
[1]
  pre-steady-state target cleavage rate: 0.356 ± 0.048
[2]
  pre-steady-state target cleavage rate: 0.0167 ± 0.0059

## UCCUGGUACAGCUUGCAUAGUAUUUAGUAA
[1]
  pre-steady-state target cleavage rate: 0.629 ± 0.056
[2]
  pre-steady-state target cleavage rate: 0.036 ± 0.0067

## UCCACGUACAGCUAGCAUAGUAUUUAGUUA
[1]
  pre-steady-state target cleavage rate: 0.815 ± 0.028
[2]
  pre-steady-state target cleavage rate: 0.0177 ± 0.0033

## UCCACCUACAGCUUGCAUAGUGUUUAGUUA
[1]
  pre-steady-state target cleavage rate: 0.633 ± 0.032
[2]
  pre-steady-state target cleavage rate: 0.0474 ± 0.0078
